± gives the standard deviation of the averaged measurements. Whole data set: some 33,000 sequences, median “E-score (dimensionless, -0.5 to 0.5)” near -0.046, cut for the highest 2% near 0.36. The list shows a part of the results.
What follows are sequences tested on T1, SpTbr T-box DNA-binding domain (GST fusion) (assay: PBM E-score of 8-mer (E-score (dimensionless, -0.5 to 0.5)); Tbr is Tbrain of the sea star Patiria miniata (Pm) or the sea urchin Strongylocentrotus purpuratus (Sp); higher = stronger binding preference; most listed sequences are background and not binding sites). Conditions: the construct has about 5 more residues each side.
T1 sequence: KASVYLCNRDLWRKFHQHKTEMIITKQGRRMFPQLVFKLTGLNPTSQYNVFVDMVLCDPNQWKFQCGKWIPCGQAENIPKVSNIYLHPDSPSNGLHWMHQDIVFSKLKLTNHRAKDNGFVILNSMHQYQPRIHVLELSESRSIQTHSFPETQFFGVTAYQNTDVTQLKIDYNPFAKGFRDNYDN
Procedure: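 Universal protein-binding microarray (Agilent AMADID 016060, 60-bp probes with a 35-bp variable region) incubated with 200 nM GST-fused Strongylocentrotus purpuratus Tbr T-box DNA-binding domain (residues 362-554) in PBS pH 7.5. Scored for every ungapped 8-mer (given with its reverse complement) as E-score (range -0.5 to 0.5; >0.45 counts as bound) and Z-score of median probe intensity. Two replicate arrays (datasets 1 and 2).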
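Further: protein at 200 nM in PBS on universal double-stranded arrays.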

Sequence	PBM E-score of 8-mer
CGGATCGA	-0.191 ± 0.056
GTGCATCA	-0.0126 ± 0.024
AGAGCGTC	0.0292 ± 0.0018
GGCAGCTA	-0.0501 ± 0.058
AGGTCAAT	-0.202 ± 0.093
CAGCCAAC	0.106 ± 0.037
CTATATAA	-0.187 ± 0.0075
CAGAACTG	-0.252 ± 0.056
AATATTCT	-0.0507 ± 0.086
AGCGGTAT	-0.0754 ± 0.086
CGGACCCA	-0.0768 ± 0.03
AAGGCAGG	-0.15 ± 0.031
AACGTGAG	0.188 ± 0.02
ACTGTACA	-0.025 ± 0.024
TAAAAAAA	0.036 ± 0.058
GGTTGAGA	0.0661 ± 0.061
TATCTGGA	-0.031 ± 0.0025
ACTTCTAC	0.037 ± 0.013
CGCCGACA	0.291 ± 0.015
CACGCCGC	0.169 ± 0.023
AGCGTGTC	0.152 ± 0.072
ATTCCTAG	-0.236 ± 0.011
ACGGCTTG	0.0249 ± 0.033
CGGTGTGC	0.0403 ± 0.015
CACCGGCG	0.0512 ± 0.077

Sequence	PBM E-score of 8-mer
AATACTGT	-0.0131 ± 0.1
AACCTGAT	-0.122 ± 0.016
CCAGCTTA	-0.133 ± 0.035
AATATAAG	-0.368 ± 0.093
GGCAGAGA	-0.193 ± 0.042
TGACGCAA	0.101 ± 0.067
AACTGCAT	-0.119 ± 0.03
ACGAATCA	-0.0264 ± 0.11
CGGCCATC	-0.125 ± 0.027
AATATGCT	0.0234 ± 0.019
CAATCCTC	0.0167 ± 0.016
AGTGGGGG	-0.0909 ± 0.05
AGAAGTTG	0.0931 ± 0.029
TAATGTGA	0.218 ± 0.024
ATGGAGCC	-0.297 ± 0.012
CAAGGCAC	-0.06725 ± 1.4e-05
GTAGTTCA	-0.1219 ± 0.00013
CCCCGGGC	-0.192 ± 0.11
CTGTGGAC	0.00823 ± 0.017
TATAAGCA	-0.138 ± 0.013
GTACCTGA	-0.2372 ± 0.0014
AAGCACTG	-0.0411 ± 0.081
AACTCCTA	0.01 ± 0.014
AGATATTG	-0.117 ± 0.048
GAGGACTC	-0.224 ± 0.053

Sequence	PBM E-score of 8-mer
CCGTTTGC	0.0538 ± 0.01
ACTCAACA	0.195 ± 0.01
GGACCGCA	-0.132 ± 0.051
CGTGAGGA	0.178 ± 0.011
AGACGCAG	-0.0766 ± 0.028
CTTACCGC	0.046 ± 0.0053
CTACCAAC	-0.0445 ± 0.065
AGTTACCC	-0.125 ± 0.045
GCCAATGA	0.104 ± 0.082
GACGCTGC	-0.0944 ± 0.087
ACTAAAGA	-0.174 ± 0.049
CAGTTTTA	-0.0509 ± 0.036
ACCCTAGA	-0.114 ± 0.0022
CAGTCCAC	0.192 ± 0.026
CCAGGTAG	-0.0519 ± 0.069
ATCAGGAT	-0.119 ± 0.0046
CTTCAAAG	-0.138 ± 0.029
ATGTACAG	-0.039 ± 0.071
CAATTCGA	-0.115 ± 0.034
GCTTATCC	0.125 ± 0.027
CGACGTAG	-0.137 ± 0.045
ATGTCCAG	-0.221 ± 0.041
AGAGATGC	-0.0945 ± 0.03
ATCCGGAT	-0.134 ± 0.029
ATCCGGTA	-0.0877 ± 0.073

Sequence	PBM E-score of 8-mer
AGAATTTC	-0.0384 ± 0.14
ACCGTACG	0.0643 ± 0.0085
GGATCGAC	-0.0556 ± 0.0057
ACAACCCT	0.0805 ± 0.0049
ATTTGAAA	-0.227 ± 0.071
ACATCAAA	0.0819 ± 0.034
CCAAAGGA	-0.262 ± 0.032
AGAAGTCA	-0.00144 ± 0.039
ATACTGTC	0.0797 ± 0.033
AGGCGCGC	0.185 ± 0.039
CTCCTGCA	-0.0864 ± 0.04
AGAGAACG	0.14 ± 0.025
ATGTTTAA	-0.0732 ± 0.0089
CGACAGAA	0.0111 ± 0.034
ACAAAGGG	-0.137 ± 0.048
CGGCTACG	-0.0244 ± 0.031
GAGTCTAA	-0.0932 ± 0.04
CATCCGAG	-0.13 ± 0.052
CGTGTTAA	0.409 ± 0.0099
GGCACACA	0.224 ± 0.0077
GCTTTCAA	-0.139 ± 0.024
CGTGCCAC	0.254 ± 0.041
ATTGCTAG	0.0788 ± 0.013
ACAGGCTC	-0.016 ± 0.026
GGAGCTCA	-0.0825 ± 0.04

Sequence	PBM E-score of 8-mer
CGGTTCAA	-0.32702 ± 3.5e-05
GGGGTAAC	-0.0298 ± 0.022
AGCGTGGA	0.102 ± 0.045
GCCAGGGA	-0.192 ± 0.057
ATCACAAA	0.106 ± 0.014
CACAGCCG	0.0316 ± 0.067
AGTCCTTA	-0.0939 ± 0.02
CCGTTAAA	0.176 ± 0.08
CTCAGAAC	0.02 ± 0.019
AACATCGA	0.0413 ± 0.043
CAAATCGA	-0.0494 ± 0.049
ATACGTTC	-0.105 ± 0.0093
GGTGCTTA	0.0813 ± 0.098
ACTCTATC	-0.103 ± 0.042
GACGCCGC	0.0108 ± 0.043
ACCCGGCA	0.0763 ± 0.041
CCGCAATA	-0.108 ± 0.0022
CAACAAAG	0.0729 ± 0.02
ACAGTACG	-0.186 ± 0.066
GATACGAA	-0.0398 ± 0.079
ATGCGCAT	-0.0516 ± 0.17
CGATGAGC	-0.0456 ± 0.11
AATAGTAC	-0.139 ± 0.066
ATCGGGCG	-0.00975 ± 0.05
CGTTTGAA	-0.067 ± 0.0095

Sequence	PBM E-score of 8-mer
CGTACGAG	-0.198 ± 0.1
GCGTGAAC	0.456 ± 0.0075
CTATGAAG	-0.226 ± 0.0027
AAGGTGGC	0.372 ± 0.0085
GCTCTGTA	-0.199 ± 0.025
AGTAAAAA	-0.224 ± 0.024
AGTAGGGA	-0.297 ± 0.088
ATCTCCTC	-0.0194 ± 0.039
CTACGCTC	-0.232 ± 0.0073
AATGAACC	-0.075 ± 0.066
ACCACCGT	0.0835 ± 0.0064
AATATTCC	-0.1264 ± 0.00081
ACGGGGGG	-0.0337 ± 0.022
AGCCTCAC	0.178 ± 0.015
CCGAATGA	-0.173 ± 0.053
CGGCGCAC	0.0249 ± 0.048
ATTTTGCG	0.101 ± 0.019
GCGCCCCC	-0.0866 ± 0.022
CCGTCGAG	-0.104 ± 0.023
AAATAATT	-0.0728 ± 0.066
AAGGGTTA	-0.0482 ± 0.0044
ACTTACCG	-0.1401 ± 0.00043
CACCTGTA	0.331 ± 0.036
GGAGGCAC	-0.152 ± 0.12
ATACAAAG	-0.19 ± 0.03

Sequence	PBM E-score of 8-mer
ACACAACG	0.238 ± 0.0099
ACTAGACC	-0.275 ± 0.038
AACTCGCC	0.17 ± 0.0045
ATCGGTGC	-0.0391 ± 0.032
AATCATTC	-0.0441 ± 0.037
GCACACGA	-0.113 ± 0.11
CGAGGGCA	-0.0321 ± 0.028
ATCGCTAA	0.117 ± 0.016
GAATAGAA	-0.0134 ± 0.012
AGACCGAA	-0.354 ± 0.023
CTGCTAAG	0.0672 ± 0.03
ACGCATGG	-0.144 ± 0.018
GATATCGC	0.266 ± 0.019
ACGTACGG	-0.106 ± 0.045
GTGGGTCA	-0.0719 ± 0.046
AAGGCAGT	-0.0222 ± 0.0029
AAGGCATA	-0.131 ± 0.084
AAGCCGTA	-0.206 ± 0.062
ATAAGCCC	-0.176 ± 0.035
GGATACGA	0.0477 ± 0.082
ATGATAAA	0.105 ± 0.11
CCCCAAAA	-0.112 ± 0.042

Source: the supplement of paper PMC4166925
